# Data from PubChem BioAssay (NCI).
#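 Briefly, cells in 96-well plates were exposed to five compound concentrations for 48 h, and endpoints were estimated by linear interpolation. GI50 is the concentration that inhibits growth by half. Definition used: TGI = concentration required for complete inhibition of growth.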
# Tested on: NCI-H322M lung
# Experiment: NCI tumour cell line growth inhibition, 48 h
Compound,GI50,TGI
CCCCC[C@H]1C/C=C2/C(=O)C=C[C@@H]2C/C=C\CCCC(=O)O[C@@H](CCCCC)C/C=C2/C(=O)C=C[C@@H]2C/C=C\CCCC(=O)O1,0.57 µM,1.54 µM
CC(C)CCCC(C)[C@H]1CCC2[C@@H]3CCC4Nc5nocc5C[C@]4(C)C3CC[C@@]21C (some centres not stated),,92.4 µM
CN1c2ccccc2N(C(=O)c2ccc(Cl)cc2)C(CC(=O)O)c2cccn21 (configuration not stated),,> 100 µM
CC1=CC(=O)c2ccccc2C1=O,,28.6 µM
Cc1cc(N(CCC#N)CCC#N)ccc1/C(N=Nc1ccc(C(=O)O)cc1)=N\NC(=O)c1cc(Cl)ccc1O,,95 µM
CC[C@]1(Cc2ccc(OC)c(OC)c2)C=[N+]([O-])O[C@H](OC2CCCC2(c2ccccc2)c2ccccc2)[C@@H]1OC(C)=O (some centres not stated),,9.02 µM
c1ccc(CN2CCC3(CC2)SSC2(CCN(Cc4ccccc4)CC2)S3)cc1,,> 100 µM
O=c1oc(Cl)c(Cl)c2ccccc12,> 100 µM,> 100 µM
Cc1cccc(CP(Cc2cccc(C)c2)CC2(Cp3c4ccccc4c4ccccc43)COC2)c1,,> 100 µM
Nc1cccc(/C=C/C(=O)N2CCN(CCOC(c3ccccc3)c3ccccc3)CC2)c1,,30.1 µM
COc1cccc([C@H]2C/C(=N\NC(=O)C(=O)N[C@@H](C)c3ccccc3)c3ccccc3N2)c1,,> 100 µM
C[C@H](CCC(=O)O)[C@H]1CC[C@@]2(C)[C@@H]3C(=O)C[C@H]4C(C)(C)[C@@H](O)CC[C@]4(C)[C@H]3C(=O)C[C@]12C,,> 100 µM
CCCc1cc(=O)[nH]c(-n2nc(C)cc2C)n1,2.75 µM,57.7 µM
CCOP(=O)(OCC)C(Nc1ccc(Br)cc1)c1cccc([N+](=O)[O-])c1 (configuration not stated),,60.3 µM
OCC(O)C(Cl)CCl (configuration not stated),,> 100 µM
S=C1N(/N=C/c2c3ccccc3cc3ccccc23)C(=Nc2ccccc2)C(=Nc2ccccc2)N1c1ccccc1,,> 100 µM
COc1cc2ccccc2oc1=O,,> 100 µM
COC(=O)c1sc(=S)sc1SCc1ccc(CSc2sc(=S)sc2C(=O)OC)cc1,,> 100 µM
COc1ccc2c3c1O[C@H]1C(OC)C=CC4C(C2)N(Cc2cccs2)CCC341 (some centres not stated),,> 100 µM
[N-]=[N+]=CC(=O)c1ccccc1C#CCCc1ccccc1,,> 100 µM
COc1ccc(-n2c(=O)[nH]n(C(C)=O)c2=O)cc1,,> 100 µM
N#Cc1c(-c2ccc([N+](=O)[O-])cc2)c(C#N)c(=O)n(NS(=O)(=O)c2ccccc2)c1-c1ccccc1,,> 100 µM
O=S(=O)(Nc1ccc(Br)c(Cl)c1)c1ccc(-c2cnc(C3CC3)o2)cc1,2.86 µM,22.2 µM

Compound,GI50,TGI
O=c1c2nc3ccccc3c(=O)n2ncn1-c1ccccc1Cl,,> 100 µM
Nc1ccc2c(SCc3ccc([N+](=O)[O-])cc3)c3ccccc3nc2c1,,60.9 µM
O=C1CSC(c2ccc([N+](=O)[O-])cc2)N1c1ccc(-n2c(-c3ccccc3)nc3ccccc3c2=O)cc1 (configuration not stated),,> 100 µM
NC(=O)c1cc2ccc(O)cc2oc1=Nc1ccccc1,,> 100 µM
CCN(CC)CCOc1ccc(CCc2cc(OC)c(OC)c(OC)c2)cc1,,> 100 µM
CCN(CC)/C(Sc1ccccc1)=C(\C(Cl)=C(Cl)Cl)[N+](=O)[O-],,39.9 µM
O=C1NC(=S)N/C1=C\c1ccc(Br)s1,,> 100 µM
COc1ccc(CNC(=O)NCn2cc(-c3ccccc3)nn2)cc1,,> 100 µM
CC1=NN(c2cccc(Cl)c2)C2(SCC(=O)N2c2nc3ccccc3s2)/C1=C\c1cccs1 (configuration not stated),,42.3 µM
O=C(Nc1cccc(-n2cc(-c3ccncc3)c(-c3cc(O)cc(Cl)c3)n2)c1)Nc1ccc(Cl)c(C(F)(F)F)c1,3.16 µM,13 µM
CCOC(=O)c1c2c(n(Cc3ccc(Cl)cc3Cl)c1C)-c1nc[nH]c1C(=O)C2=O,15.6 µM,29.9 µM
c1csc(-c2cn3nc(-c4c[nH]c5ccccc45)sc3n2)c1,4.85 µM,52.7 µM
CC(C)C1=CC23CCC4C(C)(C(=O)O)CCCC4(C)C2CC1C1C(=O)N(c2ccccc2N2C(=O)C4C5CC6C7(C)CCCC(C)(C(=O)O)C7CCC6(C=C5C(C)C)C4C2=O)C(=O)C13 (configuration not stated),,10.8 µM
Cc1ccc([N+](=O)[O-])cc1NC(=O)/C(=N/NC(=S)NN)C1SC(=S)NC1=O (configuration not stated),,> 100 µM
NC(=O)c1ccc(I)c(N=O)c1,> 100 µM,> 100 µM
O=C(N/C(=C/c1ccc(Cl)cc1Cl)c1nc2ccccc2s1)c1ccccc1,,33.7 µM
CCC(C)[C@H]1O[C@]2(C=C[C@@H]1C)C[C@@H]1C[C@@H](C/C=C(\C)[C@@H](OC3C[C@H](OC)C(O[C@H]4C[C@H](OC)[C@@H](O)[C@H](C)O4)[C@H](C)O3)[C@@H](C)/C=C/C=C3\CO[C@@H]4[C@H](O)C(C)=C[C@@H](C(=O)O1)[C@]34O)O2 (some centres not stated),0.961 µM,2 µM
CN(C)CCN(C)c1ccc2c(=O)n(CCN(C)C)c(=O)n3c4ccccc4c(=O)c1c23,,3.82 µM
CCn1cc(C(=O)N/N=C/c2ccccc2)c(=O)c2cc(F)c(N3CCNC(C)C3)c(F)c21 (configuration not stated),1.78 µM,3.17 µM
Cc1ccc(NC2=CC(=O)C(NO)c3ccccc32)cc1 (configuration not stated),,23.5 µM
COc1nc(C#CC2(O)CCCCC2)nc(OC)n1,,29.7 µM
CC1(N)CCN(c2cccnc2NC(=O)c2nc(-c3ncccc3C(F)(F)F)cnc2N)CC1,55.6 µM,> 100 µM
CC(C)CC(NC(=O)OC(C)(C)C)C(=O)Nc1ccc(Nc2nc(F)nc(-c3c4ccccc4c4n3CCS4)n2)cc1 (configuration not stated),,50.3 µM

Compound,GI50,TGI
CCOC(=O)c1cc2c(n1Cc1cccc(OC)c1)-c1oncc1CCC2,7.94 µM,> 100 µM
CC1CN(c2ccc(Cl)cc2)CC(C)OC(=O)O1 (configuration not stated),,> 100 µM
O=C(CCCN1CCC2(CC1)CC(=O)N(N1CCCCCC1)C2=O)c1ccccc1,,> 100 µM
O=C1c2cccc(NCCN=Cc3cc([N+](=O)[O-])ccc3O)c2C(=O)c2c(NCCN=Cc3cc([N+](=O)[O-])ccc3O)cccc21,3.08 µM,> 100 µM
O=C(c1cccs1)N(C(=S)OC12CC3CC(CC(C3)C1)C2)c1ccccc1,,> 100 µM
Nc1ccccc1S(=O)(=O)c1ccccc1,,> 100 µM
Clc1ccc(N=Nc2nc3ccccc3nc2N=Nc2ccc(Cl)cc2Cl)c(Cl)c1,,> 100 µM
CNCCCn1c2c(c3ccc([N+](=O)[O-])cc3c1=O)C(=O)c1cc(OC)cnc1-2,0.162 µM,1.65 µM
CCOC(=O)/C=C/n1c2ccccc2c(=O)c2ccccc21,,> 100 µM
CCOC(=O)C1=NN(c2ccc(C)cc2)C2=CC(C)=NN(C)C(=S)N21,,> 100 µM
C=CCOC(=O)NC1C(OC(C)[C@@H](NC(=O)OCc2ccccc2)C(=O)OC(C)(C)C)OC(COC(C)=O)C(OC(C)=O)C1OC(C)=O (some centres not stated),,> 100 µM
Clc1cc2c(cc1Cl)CC(NCCN1CCCC1)CC2 (configuration not stated),,29.6 µM
CCSc1n/c(=C\c2ccco2)c2nncn12,,> 100 µM
COC(=O)CNS(=O)(=O)c1ccc(-c2c3nc(c(-c4ccc(S(=O)(=O)NCC(=O)OC)cc4)c4ccc([nH]4)c(-c4ccc(S(=O)(=O)NCC(=O)OC)cc4)c4nc(c(-c5ccc(S(=O)(=O)NCC(=O)OC)cc5)c5ccc2[nH]5)C=C4)C=C3)cc1,,> 100 µM
O=C(Nc1cccc(-n2cc(-c3ccncc3)c(-c3ccc(Cl)c(O)c3)n2)c1)c1ccc(N2CCOCC2)c(C(F)(F)F)c1,> 50 µM,> 50 µM
CC12CC3OC(=O)C1COC14OC5(C2C1=O)C(O)(CCC1C4CC(O)C2(O)CC=CC(=O)C12C)C(=O)OC35C (configuration not stated),,> 100 µM
Cc1ccc(C(CC(=O)c2ccccc2)C2C(=O)NC(=O)NC2=O)cc1 (configuration not stated),> 100 µM,> 100 µM
Brc1cc(CCOC2CCCCO2)c(-c2sccc2CCOC2CCCCO2)s1 (configuration not stated),,> 100 µM
CC(=O)OC[C@]12CC[C@@H](C(=O)CBr)[C@@H]1[C@H]1CC[C@@H]3[C@@]4(C)CCCNC(C)(C)[C@@H]4CC[C@@]3(C)[C@]1(C)CC2,14.9 µM,28.2 µM
CN(C)CCNC(=O)c1cc([N+](=O)[O-])cc2c1Oc1ccccc1O2,,> 100 µM
Cc1ccc(SSc2ccc(C)cc2C(=O)O)c(C(=O)O)c1,,> 100 µM
COc1cc(-c2cc(-c3ccccc3)nc(-c3c(OC)ccc4c(C)cc(=O)oc34)c2)cc(OC)c1OC,,> 100 µM
CCCCc1ccc(Nc2nc(SC)c3[nH]cnc3n2)cc1,,> 100 µM

Compound,GI50,TGI
COc1cccc2c1ccc1nc3cccc(C(=O)N[C@H](C)CN(C)C)c3nc12,0.0919 µM,3.82 µM
C=CCc1cccc2cc(C(=O)Nc3ccccc3)c(=N)oc12,,31.8 µM
COC(=O)C1CN=CN1CCc1ccccc1 (configuration not stated),,> 100 µM
COc1cc2c(cc1O)CC[C@@H]1[C@@H]2CC[C@]2(C)[C@@H](OCCN(C)C)CC[C@@H]12,0.633 µM,5.44 µM
CCCCCCCCCCCCCCCCOCC(CC(F)(F)P(=O)(OCC)OCC)OC(C)=O (configuration not stated),,30.9 µM
COC1/C=C/C(C)C(C(C)C(OC)C(C)CCC(=O)C(C)C(C/C=C/N(C)C=O)OC)OC(=O)/C=C/C=C(\C)CC(OC)CC2=CC(=O)O[C@H](C2)C(C)C(OC)CC(OC)/C=C/C(C)C(OC)C1 (some centres not stated),0.0141 µM,
CC(=O)Oc1ccc(-c2cc3ccccc3oc2=O)cc1,,> 100 µM
O=C1C(N2CC2)=C(N2CC2)C(=O)C(N2CC2)=C1N1CC1,0.326 µM,3.56 µM
CNC(=O)c1cccc2cc(Oc3ccnc4cc(OCC5(N)CC5)c(OC)cc34)ccc12,6.71 µM,20.2 µM
CCOC(=O)c1cn2c(n1)sc1c(Cl)c(Cl)ccc12,,> 100 µM
Nc1nc(SCc2ccc([N+](=O)[O-])cc2)nc2c1ncn2C1OC(CO)C(O)C1O (configuration not stated),,> 100 µM
Cc1cc(NCCCCCCNc2cc(C)nc3cc(N(C)C)ccc23)c2ccc(N(C)C)cc2n1,,> 100 µM
OCC1C(/C=C/c2ccoc2)ON2CCCC12 (configuration not stated),,> 100 µM
CCCCCCCCC/C=C/C=C/C(=O)NCC(=O)NC1C(O)C(O)C(Nc2ncnc3nc[nH]c23)OC1C(O)CO (configuration not stated),,0.0317 µM
C(=N\NC1=NCCN1)/c1ccc(-c2cn3cc(/C=N/NC4=NCCN4)ccc3n2)cc1,,> 70.8 µM
O=C1c2ccccc2OP(=O)(OCC(F)(F)F)OC1(C(F)(F)F)C(F)(F)F (configuration not stated),,> 100 µM
O=C(O)c1cc2ccc3ccccc3c2oc1=O,,> 100 µM
CC(C)=CCC/C(=C/CC/C(=C\CCc1ccoc1)C(=O)O)C(=O)O,,> 100 µM
CCOC(=O)C(NC(=O)c1ccco1)(Nc1nc2ccc(OCC)cc2s1)C(F)(F)F (configuration not stated),,> 100 µM
CN(C)C(=S)/N=c1\ssc(=S)n1Cc1ccccc1,,41.6 µM
O=C(c1ccc(Cl)cc1)N(C(=O)N1CCC(c2ccccc2)CC1)c1ccccc1,,> 100 µM
CC(=O)O[C@H]1[C@@H]2OC(=O)[C@@](O)(CC3CCCO3)[C@@H]2CC(=O)[C@](C)(O)CC/C=C(\C)CCC[C@@H]1C (some centres not stated),,> 100 µM
